Assay results reported in ChEMBL document CHEMBL5308541, “MAIP: An Open-Source Tool to Enrich High-Throughput Screening Output and Identify Novel, Druglike Molecules with Antimalarial Activity” (ACS Med Chem Lett, 2023).
The campaign covered roughly 150,000 compounds. About 540 (0.36%) showed an effect of 50% or more. The list shows a part of the results.

Tested on: Plasmodium falciparum
Assay: Primary screen in NF54 nanoGlo assay, in single point, at 2uM, 72h; a lower Z score goes with more inhibition
Type: functional, Erythrocyte
Details: timepoint 72 hour

Compound	% Inhibition	Z score
c1cc(CNc2ccc(-c3ccncc3)cn2)nc(N2CCOCC2)c1	-11%	1.6
CC(C)[C@H]1NC(=O)[C@H](C)N(C)C(=O)[C@H]([C@@H](C)O)NC(=O)COc2cccc(c2)CC2(CCNCC2)CNC1=O	-1%	0.15
CN1CCc2cc(CNc3nc(C(F)F)nc4ccccc34)ccc21	-11%	1.98
CC1(C)C2CCC1(C)C(OCC(O)CNC1CCCC1)C2 (stereo unspecified)	13%	-1.96
CN(C)c1ncccc1O[C@H]1CCN(c2ncnc3[nH]ccc23)C1	1%	-0.12
COCC(C)=CCn1cnc2ccc(S(C)(=O)=O)cc2c1=O	-3%	0.52
Cc1noc(C)c1C(=O)Nc1ccn(C(C)(C)C(=O)O)n1	-13%	2.31
C[C@H](NCc1ccnc(N)c1)c1ccc(-c2cccc(C#N)c2)cc1	-3%	0.45
CN(C)C1CCN(c2ccc(Nc3ncnc4c(F)cccc34)cc2)CC1	-15%	2.21
NC(=O)c1cncc(N2CCC(N3CCN(CCO)CC3)CC2)n1	-1%	0.13
C[C@H]1COCCN1CCN1CCC(=O)N(C)c2cc(F)ccc21	2%	-0.52
Cc1cccc(OC2CCN([C@H]3CCCN(Cc4ccccc4)C3)CC2)n1	6%	-1.22
CCOC(=O)N1CCC(Nc2nc(C)ncc2-c2nc(-c3ccsc3)no2)CC1	-9%	1.36
Cc1c(CN2CCC(O)(Cn3ccnc3)CC2)[nH]c2c(Cl)cccc12	95%	-16.38
C[C@](O)(CNc1ccc2[nH]ccc2c1)c1cccc(C(F)(F)F)c1	15%	-2.61
CN1CCN(c2ncnc3ccc(-c4ccc5c(c4)OCO5)cc23)CC1	-9%	1.51
CC1(C)Cc2cccc(C(=O)N3CCC(n4cc(C(=O)O)cn4)CC3)c2O1	7%	-1.41
COCCn1cnc(-c2ccccc2)c1-c1cccc(OCCCN(C)C)c1	-1%	0.28
Cc1ccnc(NCc2cccc(N3CCOCC3)n2)c1Cl	-5%	1.05
CCc1cc(N2CCC[C@H](Nc3nccc(Oc4ccccc4)n3)C2)ncn1	-7%	1.08
Cc1cn(-c2cncc(-c3cccc(OCCN(C)C)c3)c2)cn1	15%	-2.5

Compound	% Inhibition	Z score
C(=Cc1ccccc1)COc1ccc2ncccc2c1	4%	-0.8
CC1(C)C[C@H](NC2CCN(CC(F)F)CC2)c2ccccc2O1	-2%	0.46
COc1ccc(Cn2nc3ccc(-c4ccc(Cl)cc4)nn3c2=O)cc1F	-5%	0.82
CN(C)CC#CCNC(=O)Nc1cccc(OCC(=O)N(C)C)c1	-9%	1.35
CC[C@@](CO)(NCc1cc(OC)c(OC)cc1OC)c1ccccc1	-8%	1.48
OCCC#Cc1ccc(-c2c(-c3ccccc3)ncn2CCn2ccnc2)cc1	-3%	0.55
CC(C)n1cc2cc(NC(=O)c3cc4ccc(OC(F)(F)F)cc4[nH]3)ccc2n1	6%	-1.35
CCOC1(C)CCN(C(=O)[C@@H](C)Cc2cnc3ccccc3n2)CC1	-5%	1
O=C(Cc1c[nH]c2ncccc12)Nc1cc(C(F)(F)F)ccn1	-10%	1.76
CCCCC(=O)N(C)[C@H](c1ccccc1)c1c[nH]c2ccccc12	6%	-0.93
Cc1ccnc(N2CCN(CCCN3CCCCC3)CC2)c1	-6%	1.24
COC(C)C(=O)N1CCCC(C(=O)O)C1C (stereo unspecified)	7%	-1.42
O=C(c1ccccc1CC1CCNCC1)N1CCN(C2CCOCC2)CC1	-6%	1
O=C(Cn1cc(OCc2cccc(Cl)c2)c(=O)cc1CO)Nc1ccc2[nH]ccc2c1	-9%	1.77
CN1CCC(N2CCC[C@H](NC(=O)CN(C)Cc3cccnc3)C2)CC1	-9%	1.47
Oc1cccc(CN2CCN(C3CCN(c4ccc5c(c4)CCC5)CC3)CC2)c1	-19%	4.11
Cc1cccc2c(NCCCCN3CCN(CCO)CC3)ncnc12	-12%	1.79
O=C(c1ccc(C[C@H]2CCCNC2)cc1)N1CCC(Nc2ccccn2)CC1	-9%	1.84
c1ccc(NCCCNc2nnc(-c3ccon3)s2)nc1	-12%	2.1
OCC12CCCNC1CCN(Cc1cc(O)c3cc(F)ccc3n1)C2 (stereo unspecified)	-12%	1.87
C[C@@H](Cc1ccc2oc3ccccc3c2c1)NC(=O)c1ccc(N(C)C)cc1	0%	0.06

Compound	% Inhibition	Z score
CCC(NC(=O)[C@H](CC(=O)OC)NC(C)=O)(C1CC1)C1CC1	-11%	1.71
CC(C)(C)C1CN(C(=O)Cn2ccc(=O)[nH]c2=O)CC(c2ccccc2)O1 (stereo unspecified)	-14%	2.38
COCCN1CCC(Nc2nc3cccc(F)c3s2)CC1	1%	-0.22
C[C@H](NC(=O)c1ccnc(N2CCN(C)CC2)c1)c1ncc(-c2ccccc2)o1	0%	0.03
O=C(NC1COCCC1Oc1ccc(CO)cc1)c1ccnc2ccccc12 (stereo unspecified)	-7%	1.01
FC(F)(F)c1cccnc1NCCNCc1csc(-c2ccco2)n1	11%	-1.98
c1cc(CN2CCC(NCCOC3CCCCCC3)CC2)ccn1	1%	-0.21
CN1C[C@@H]2CN(C[C@H]3CCCCN3C(=O)OC(C)(C)C)C[C@@H]2C1	-8%	1.82
Cc1nn(C)c(C(=O)N2CC(O)C(N3CCCC3)C2)c1Cl (stereo unspecified)	-7%	1.06
CC(=O)N1CCC(NCc2ccc3[nH]c(-c4ccc(F)cc4)c(C)c3c2)CC1	3%	-0.65
CN(C)CCN(C)C(=O)c1cccc(-c2cc(C(F)(F)F)n[nH]2)c1	-1%	0.12
O=C(CCC(F)(F)F)N1C2CCC1CC(n1cc(Br)cn1)C2 (stereo unspecified)	-3%	0.47
O=C(C1CCC1)N1CCC(NC(C2CCNCC2)[C@H]2C[C@H](O)C2)CC1 (stereo partly specified)	10%	-1.69
Cc1cc(N2CCC(NCCc3c[nH]cn3)CC2)nc(-c2ccccc2)n1	32%	-5.53
Clc1ccc(Oc2nc3ccccc3o2)c2ncccc12	7%	-1.34
Nc1nc(NC2CC2)cc(N2CCC(NC(=O)c3ccccc3)C(O)C2)n1 (stereo unspecified)	-16%	2.68
CNc1nc(N[C@H]2C[C@@H](O)[C@@H]2n2cccn2)nc2ccccc12	-1%	0.09
CC(C)c1cnn2c(NCc3ccccc3-n3cccn3)cc(O[C@H]3CCCNC3)nc12	1%	-0.13
O=C(NC[C@H]1CCCN(c2ncnc3[nH]ccc23)C1)c1ccc2c(c1)CCCO2	-6%	0.95
O=S(=O)(c1cccc2cnccc12)N1CCCN(c2ccc3nnc(-c4ccccc4)n3n2)CC1	-10%	2.13
CCNS(=O)(=O)c1ccc2c(c1)N(C(=O)c1cnn(C(C)C)c1)CC2	-5%	0.79

Compound	% Inhibition	Z score
Cn1nc(-c2ccccc2)cc1C(=O)NCCN1CCN(C[C@H](O)COC(C)(C)C)CC1	1%	-0.16
O=C(c1ccccc1N1CCOCC1)N1CCCn2nc(CO)cc2C1	3%	-0.48
CN1CCC(N2CC[C@H](N(C)C(=O)c3nnc4ccccc4c3O)C2)CC1	-11%	2.21
c1ccc2c(c1)CCCN2CCNc1nc(-c2ccncc2)nc2c1CNC2	-11%	1.61
CN(C)C(=O)N1CC[C@H](N(CCN(C)C(=O)c2cccc3[nH]ccc23)C2CCOCC2)C1	-11%	1.91
CC(=O)N1CCCC(C(=O)N2CCC(NC(=O)OC(C)(C)C)C(C)(C)C2)C1 (stereo unspecified)	-2%	0.38
CCCc1cc(C(=O)N2CCC[C@H]2C2CCOCC2)cc(=O)[nH]1	4%	-0.82
Cc1ccc2c(C)cc(NC[C@H]3CCCN3C)nc2c1C	5%	-1.05
Nc1nc2c(c(NCC[C@H]3COc4ccccc4O3)n1)CCNC2	3%	-0.6
CC[C@H](NC(=O)c1ccc2oc(C)cc2c1)c1nc(C)c[nH]1	-5%	0.72
Cc1ccc2ncccc2c1CNC(=O)CN1CCN(c2ncccn2)CC1	2%	-0.26
Cn1ccnc(N2CCC[C@H](Nc3ncnc4cc(F)c(F)cc34)C2)c1=O	-9%	1.61
N#Cc1ccc(N2CCC(NCCc3c[nH]cn3)CC2)nc1	-6%	1.18
C[C@@]1(c2ccc(Br)cc2)COC(=O)N1	-2%	0.47
c1ncn(Cc2ccc(NCc3ccc4[nH]ccc4c3)cc2)n1	-5%	0.81
COc1ccc(-c2cccc3[nH]ccc23)nn1	20%	-4.34
CN1C(=O)C(C)(C)COc2ccc(Nc3ncnc4[nH]ccc34)cc21	-3%	0.61
CCc1[nH]c2ccc(CNc3ncc(F)c(N4CCOCC4)n3)cc2c1C	0%	-0.01
CC[C@@H](c1nc(C)no1)n1cnc(-c2ccccc2)c1-c1cnn(C(C)C)c1	6%	-0.95
Cn1cc(CN2CCC[C@H](COc3ccccc3C(=O)N3CCCCC3)C2)c2ccccc21	4%	-0.72
